Measurements reported in article PMC4336329 (PLoS ONE, 2015).
The whole screen tested about 310,000 compounds, of which about 14,000 (4.5%) showed an effect of 50% or more. The effect is printed as a negative number. Some of the results follow.

These molecules were tested against human ether-à-go-go-related gene (hERG) potassium channel (human, UniProt Q12809) (assay: primary screen, population patch clamp on CHO cells stably expressing hERG).
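Note: peak tail current of the secondary pulse compared with the same well before compound.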

Chain of human ether-à-go-go-related gene (hERG) potassium channel (Q12809 whole entry, looked up): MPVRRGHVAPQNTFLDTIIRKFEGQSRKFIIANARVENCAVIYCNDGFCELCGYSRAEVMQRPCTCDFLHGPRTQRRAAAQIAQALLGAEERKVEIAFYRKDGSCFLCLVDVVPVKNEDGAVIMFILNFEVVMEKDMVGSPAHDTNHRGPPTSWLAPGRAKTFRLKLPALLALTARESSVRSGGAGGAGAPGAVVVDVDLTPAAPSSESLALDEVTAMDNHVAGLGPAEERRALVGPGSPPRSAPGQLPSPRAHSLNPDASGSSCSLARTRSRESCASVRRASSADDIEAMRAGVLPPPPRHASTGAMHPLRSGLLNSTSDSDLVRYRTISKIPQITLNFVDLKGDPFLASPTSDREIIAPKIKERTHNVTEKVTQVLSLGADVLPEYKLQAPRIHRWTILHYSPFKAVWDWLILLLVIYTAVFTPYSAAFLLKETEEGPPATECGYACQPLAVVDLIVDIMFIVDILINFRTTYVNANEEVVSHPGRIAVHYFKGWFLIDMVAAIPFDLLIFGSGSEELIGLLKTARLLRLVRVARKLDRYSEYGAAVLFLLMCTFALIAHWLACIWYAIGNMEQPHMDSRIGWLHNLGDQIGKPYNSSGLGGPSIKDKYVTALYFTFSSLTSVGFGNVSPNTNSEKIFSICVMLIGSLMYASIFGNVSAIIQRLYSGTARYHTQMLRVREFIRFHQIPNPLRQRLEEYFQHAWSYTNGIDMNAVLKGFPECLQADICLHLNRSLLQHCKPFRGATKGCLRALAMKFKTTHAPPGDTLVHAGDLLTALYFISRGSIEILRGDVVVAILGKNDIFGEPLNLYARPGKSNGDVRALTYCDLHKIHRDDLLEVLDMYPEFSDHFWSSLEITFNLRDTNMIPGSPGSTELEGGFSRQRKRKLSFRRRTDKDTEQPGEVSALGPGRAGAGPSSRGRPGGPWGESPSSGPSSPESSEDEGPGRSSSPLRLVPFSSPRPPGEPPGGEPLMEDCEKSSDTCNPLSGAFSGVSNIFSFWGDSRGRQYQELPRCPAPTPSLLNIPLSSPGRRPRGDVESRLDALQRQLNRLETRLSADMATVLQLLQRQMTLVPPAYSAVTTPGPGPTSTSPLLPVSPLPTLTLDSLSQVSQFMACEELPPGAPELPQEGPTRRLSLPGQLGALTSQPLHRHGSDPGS

Row | Structure (SMILES) | hERG current change (%, negative = inhibition) at 10uM
1 | Cc1ccc(NC(=O)c2sc3nc(C)nc(N4CCN(c5ccccn5)CC4)c3c2C)c(C)c1 | -40.1%
2 | CCC(=O)NC1(C(F)(F)F)C(=O)Nc2c1c(=O)[nH]c(=O)n2CC(C)C (stereo not drawn) | -1.31%
3 | CCOC(=O)C(Sc1ncc(C#N)c(N)n1)C(C)C (stereo not drawn) | 0.0332%
4 | O=C1c2ccccc2S(=O)(=O)N1CC(O)Cn1c2ccccc2c2ccccc21 (stereo not drawn) | 3.03%
5 | CN(C)c1ccc(/C=N/NC(=O)C(O)(c2ccccc2)c2ccccc2)o1 | -12.3%
6 | CCOc1ccc(NC(=O)CSc2nc(N3CCOCC3)nc(N3CCOCC3)n2)cc1 | 4.7%
7 | O=C(Nc1ccc2ccccc2c1)c1cccc(F)c1 | 17.7%
8 | O=C(CSc1nc2c([nH]c3ccccc32)c(=O)n1-c1cccc(Cl)c1)N1CCOCC1 | 1.95%
9 | O=C(OCc1c(F)cccc1Cl)c1cnccn1 | 13.6%
10 | CC(=O)c1ccc(NC(=S)N2CCN(CCN3C(=O)c4cccc5cccc(c45)C3=O)CC2)cc1 | 26.9%
11 | Cc1ccc(S(=O)(=O)N2CCOCC2)cc1C(=O)N(Cc1nnc(-c2ccccc2Cl)o1)C1CC1 | -33.9%
12 | c1ccc(CNC2=NCCC2)nc1 | 13.1%
13 | COC(=O)c1ccc(NC(=O)CSc2nnnn2C2CCCCC2)cc1 | 8.52%
14 | O=C(CNS(=O)(=O)c1ccc(Br)s1)N1CCCC1 | 22%
15 | O=S(=O)(c1cc(F)ccc1F)N1CCN(C2CCCCC2)CC1 | -10.9%
16 | O=[N+]([O-])c1cc(S(=O)(=O)N2CCCC2)ccc1N/N=C/c1cccs1 | 14.4%
17 | Cc1onc(-c2c(F)cccc2Cl)c1C(=O)N[C@@H]1C(=O)N2C(C(=O)[O-])C(C)(C)S[C@H]12.[Na+] (stereo partly drawn) | -4.35%
18 | O=C(O)C(=O)O.c1ccc(CN2CCC(N3CCC(N4CCCCCC4)CC3)CC2)cc1 | 16.5%
19 | CCC1CSC(Nc2ccc(C(=O)/C=C/c3ccc(Oc4ccccc4)cc3)cc2)=N1 (stereo not drawn) | 10.1%
20 | CC1(C)CN(c2ccc(Br)cc2Br)C1=O | 7.38%
21 | O=C(CSc1nnnn1Cc1ccccc1)Nc1ccccc1 | 13.1%
22 | Cc1ccc(C)c(N2CN(CCC3=CCCCC3)CNC2=S)c1 | -11.6%
23 | Cc1c(C(=O)N2CCCC2)sc(NC(=O)c2ccccc2)c1C#N | 5.25%

Row | Structure (SMILES) | hERG current change (%, negative = inhibition) at 10uM
24 | C/C(COc1ccccc1)=N\NC(=O)c1nnn(-c2nonc2N)c1CSc1ccccc1 | 4.71%
25 | N#Cc1c(Nc2ccccc2)c(/C=N/N=C/c2ccccc2)c[nH]c1=O | -1.68%
26 | COC(=O)c1sc(N2C(=O)C(=O)/C(=C(/O)c3ccc(C)cc3)C2c2ccco2)nc1C (stereo not drawn) | 17.3%
27 | COC(=O)C(NC(=O)CCc1nnc2ccc(N3CCC(C)CC3)nn12)C(C)C (stereo not drawn) | -3.57%
28 | CC1=NNC(=O)C1Oc1ccccc1 (stereo not drawn) | -1.86%
29 | O=C(Nc1ccccn1)c1ccco1 | 14.9%
30 | Oc1ccc(C=Nc2ccccc2-c2nc3ccccc3[nH]2)cc1 | 1.88%
31 | Cc1nc2c(C)cccn2c(=O)c1NC(=O)COc1ccccc1 | -12.1%
32 | C[C@]12CCC(=O)C[C@@H]1CC[C@@H]1[C@@H]2CC[C@]2(C)C=CC[C@@H]12 | 5.96%
33 | CN1CC(=O)NC1=NC(=O)C12CC3CC(CC(C3)C1)C2 | -8.73%
34 | COc1cc(/C=C2/SC(=S)N(CC(=O)Nc3nc4ccccc4s3)C2=O)cc(OC)c1OC | -1.98%
35 | O=C(C[n+]1ccc(/C=N/O)cc1)N(Cc1ccccc1)Cc1ccccc1.[Cl-] | 0.798%
36 | COc1cc(Cl)c(CN2CCC(CCC(=O)NC3CC3)CC2)cc1OC | -66.2%
37 | COC(=O)c1c(-c2ccccc2OC)sc2ccc(OC)cc12 | 13.1%
38 | CCc1ccc(NC(=O)C2CCCN(S(C)(=O)=O)C2)cc1 (stereo not drawn) | 21.3%
39 | COc1ccccc1C(=O)NCCCNC(=O)c1cccnc1 | 10.8%
40 | Cc1ccc(S(=O)(=O)N2CCC(C)CC2)cc1C(=O)NCc1ccccn1 | 11.3%
41 | Cc1nnc(NC(=O)NCN2C(=O)C3C4C=CC(C4)C3C2=O)s1 (stereo not drawn) | -4.75%
42 | O=C(NCCc1ccccc1F)c1cccc2cccnc12 | 13.6%
43 | Cc1ccn2nc(C(=O)OCC(=O)N(CC(C)C)C3CCS(=O)(=O)C3)nc2n1 (stereo not drawn) | 19.2%
44 | O=C(Cc1cccc2ccccc12)NC(=S)Nc1cccc(C(=O)O)c1 | 15.6%
45 | CCCCCC(=O)NC(NC(=S)NC1CCS(=O)(=O)C1)C(Cl)(Cl)Cl (stereo not drawn) | -10.4%
